# Reference: the supplement of paper PMC3334620
# In all, about 33,000 sequences were measured (“E-score (-0.5 to 0.5)”: median about -0.032, highest 2% from about 0.36 on). The list shows a part of the results.
# Target: T1, Sko1 (UniProt Q02100)
# T1 sequence: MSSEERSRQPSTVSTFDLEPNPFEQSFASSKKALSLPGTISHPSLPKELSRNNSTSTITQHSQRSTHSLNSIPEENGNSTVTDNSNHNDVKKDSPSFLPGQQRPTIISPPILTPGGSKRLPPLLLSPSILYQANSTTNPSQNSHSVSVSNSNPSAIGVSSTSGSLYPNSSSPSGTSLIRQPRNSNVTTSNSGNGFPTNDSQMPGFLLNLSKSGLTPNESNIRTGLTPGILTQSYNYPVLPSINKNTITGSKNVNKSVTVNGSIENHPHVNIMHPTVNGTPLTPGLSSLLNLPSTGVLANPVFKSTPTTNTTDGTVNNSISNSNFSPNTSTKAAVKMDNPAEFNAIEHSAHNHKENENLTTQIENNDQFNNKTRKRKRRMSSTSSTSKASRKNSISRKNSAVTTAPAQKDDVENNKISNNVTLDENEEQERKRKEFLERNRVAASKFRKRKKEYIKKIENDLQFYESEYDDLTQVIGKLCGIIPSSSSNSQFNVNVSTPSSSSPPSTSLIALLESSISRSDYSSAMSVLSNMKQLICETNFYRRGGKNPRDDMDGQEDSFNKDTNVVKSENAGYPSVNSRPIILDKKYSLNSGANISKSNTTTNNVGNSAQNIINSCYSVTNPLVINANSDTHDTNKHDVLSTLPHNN
# Assay: PBM E-score (8-mer binding enrichment) (E-score (-0.5 to 0.5)); higher = stronger / more preferred TF binding; most listed sequences are background and not binding sites
# Settings: protein concentration: 200 nM; construct: GST-full length
# Procedure, shortened: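 Universal all-10-mer Agilent arrays, double-stranded by primer extension on fresh or once-stripped slides, were probed with about 100-200 nM GST-tagged yeast transcription factors made by PURExpress. Fluorescent anti-GST detected bound protein, and masliner normalised the scans. E-scores from the Universal PBM Analysis Suite were given to each ungapped eight-base word pooled with its reverse complement.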
row,Sequence,PBM E-score
1,CTTGCCTA,0.0453
2,AGACTGAC,0.0795
3,ATGTATAG,0.164
4,ATTGCCTA,-0.0814
5,CGCGTCCC,-0.274
6,CACCGGCA,-0.161
7,CTGCGTCA,0.435
8,AGTTCGTC,0.202
9,CTTTGTGA,-0.079
10,CCTTCTCA,-0.0853
11,ACCCGGCC,-0.333
12,AAAGAGTA,-0.00658
13,AGCTTTGA,0.0244
14,CGGAAGTC,-0.152
15,CCTGAAAG,-0.0268
16,GATTGGTA,-0.054
17,AGGCAACG,-0.0814
18,GACCCCTC,-0.32
19,GACCACAC,-0.108
20,GCGCGCGC,0.244
21,GGCCCTAC,-0.337
22,CAGGGTAC,-0.117
23,CAGCCGGC,-0.207
24,AACCCGAT,0.0916
25,GGGAGTGA,-0.177

row,Sequence,PBM E-score
1,AGAAGGCT,-0.221
2,CTAACCAA,-0.0277
3,CCTGACCC,-0.214
4,CAGCGCTA,-0.00166
5,TACGGTAA,0.33
6,CCTCGAAG,-0.0384
7,AGGTTATA,-0.0325
8,ATAAAGTC,0.0596
9,CCGTAGTA,-0.0427
10,GGCTTCAA,-0.153
11,GCTGAACA,-0.148
12,ATACTGAT,0.141
13,ACAAAATA,0.188
14,CCGAACAG,0.0297
15,CGTGTAGC,0.103
16,GATGAATC,-0.0135
17,ACTCTAAC,-0.00576
18,CTATACTC,-0.102
19,AGCCGCCC,-0.234
20,CTCGCGGC,-0.182
21,AGTCGCAC,-0.105
22,AATTCTTG,0.122
23,CGATTCCC,-0.124
24,AGTGAGTG,-0.116
25,ATCCCTTC,-0.121

row,Sequence,PBM E-score
1,ACTCTCCA,-0.104
2,AACGACGC,0.0851
3,CAACCCGC,-0.124
4,CGCCCAAA,-0.0448
5,CGCTGAAC,-0.0109
6,GCCAGTGA,-0.0654
7,ACATCACC,0.277
8,ACAATATG,0.0615
9,CCATAAAA,0.0122
10,CACTTACG,0.382
11,AACGCCTG,-0.014
12,CTTGAACC,0.0388
13,AATATATT,0.328
14,GACAGCCA,-0.131
15,TCACAGAA,-0.0132
16,GCGGGCTA,-0.267
17,AAACCCCG,-0.127
18,GATTACTA,0.204
19,CCGTACTA,0.00949
20,ACGAGCAT,0.0646
21,CCAGGGTA,-0.159
22,CACTAGCG,-0.124
23,CAAGCCTA,-0.0377
24,CTTTGGAC,0.0446
25,ATTCTCGG,-0.0783

row,Sequence,PBM E-score
1,GTCACCAC,0.128
2,ACCAACGA,-0.0617
3,AGCTTTCG,-0.129
4,CAAGGTCC,-0.243
5,TCCCGAGA,-0.195
6,GCACAAGA,0.0649
7,TATCCCAA,0.0039
8,ACGTTACG,0.428
9,ACGACACG,0.209
10,GTAACCCA,0.0995
11,AGACTTAG,-0.228
12,AGGAACAA,-0.177
13,ACTAAGAA,0.0524
14,TATGAGGA,0.0996
15,AGTTCGGC,-0.0923
16,TACATTGA,0.0774
17,CATCGTAG,0.13
18,CCTAGTTA,0.0394
19,CCCACTCA,-0.115
20,ACGAGTCC,-0.0325
21,GGCCATAC,-0.121
22,GGACCAAA,0.0897
23,ACGCTTAC,0.123
24,CATATCAC,0.169
25,ATTGTAGC,-0.0529

row,Sequence,PBM E-score
1,ATCTATCC,-0.0133
2,AGGTATCA,-0.198
3,CCGAACAC,-0.0487
4,GTGTAACA,-0.0212
5,TCGTAAGA,0.199
6,ATTGCTAC,0.0814
7,AAGAGAAT,0.0569
8,GTAGTCAA,0.231
9,AAGTATGA,0.178
10,AAGTGTTC,0.0966
11,CGGGAACC,-0.28
12,GGATAGCC,-0.193
13,AGTTAAAA,0.153
14,GCCCCTAC,-0.00604
15,ACAAGGTA,0.0787
16,AATAGCGC,0.062
17,GGTCCACA,-0.321
18,AACACTCG,0.0948
19,CTACTGGC,-0.247
20,CTGGCCCC,-0.315
21,CTCTGAGC,-0.139
22,AAAGGACC,-0.229
23,CTCCAGCA,-0.209
24,ATGACCAA,0.184
25,AAGATCGA,-0.0785

row,Sequence,PBM E-score
1,CTCGTCCA,0.221
2,AATGTGAT,0.263
3,GTCATGAA,0.221
4,AGGCTACT,-0.141
5,AGCGCACC,-0.234
6,GTCGACCA,-0.0244
7,GATTCACC,-0.101
8,ACGGTCGC,-0.108
9,AGGGTGTA,-0.0881
10,AAATGAGG,-0.0231
11,ATGTCGAC,0.202
12,GCCTCGCC,-0.431
13,AAACTCCG,-0.18
14,GTATATAC,0.218
15,ACCTTTAA,0.00575
16,TCGACGCA,0.0313
17,CTGTCATC,0.0473
18,CATTAAGC,-0.0788
19,TGCGGAAA,-0.155
20,CACTAGAG,-0.0779
21,AGTCGCGG,-0.312
22,ACGTTACA,0.359
23,TCTCGAAA,0.156
24,GGTGGAAC,-0.174
25,CGGGCTAG,-0.231

row,Sequence,PBM E-score
1,AACAGCGG,-0.0117
2,AGCTTTGC,-0.179
3,AAATTGTC,0.0973
4,AAGTCCCG,-0.293
5,ACGAGAAA,0.119
6,AAGTTAAT,0.191
7,ACATATCC,0.0118
8,ACTGTTCC,-0.0754
9,GAGCCTCC,-0.273
10,TAGATGCA,-0.11
11,CCCTTCCA,-0.191
12,GATTGAAC,0.0633
13,ACGATATC,0.196
14,ACCCAACT,0.016
15,AATTGTTA,0.129
16,CAATAAAC,0.112
17,AACCCCGC,-0.157
18,AATGCTCG,0.164
19,CAAAAACA,0.021
20,CCGTGTTC,-0.0799
21,TACTCAAA,0.196
22,CCAGCCTA,-0.364
